Results on 44 sequences are retold here after the supplement of paper PMC11417369.

± gives the standard deviation of the averaged measurements. The list shows a part of the results.

For this assay, the system named is PfAP2-I AP2 domain 3 (GST-tagged). As to the kind of experiment: gcPBM binding intensity (ln(normalized median fluorescence intensity)); higher = stronger DNA binding. A digest of the protocol:
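In this array assay, P. falciparum DNA-binding domains with a GST tag, expressed in E. coli, were applied for 1 h to primer-extended double-stranded 36-bp intergenic genomic probes and negative controls on an Agilent 4 × 180k array. Bound protein was visualised with Alexa488 anti-GST antibody at 488 nm. Binding intensity is the highest Masliner-normalised natural-log median intensity across replicate spots of either probe orientation.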
On to “TAAGGGATATGTATATGTACATACAAATATATATAA [XGTACX_site2892]”, for which the “gcPBM binding intensity (ln)” value was 7.75 ± 0.47.
Under “TGTAGATTTTGTAACACACACATATAAATACAGATA [CACACA_site5343]” stands 7.84 ± 0.48; under “AATTTCATTTTTAGAAGTACATTTATATTAAAAATC [XGTACX_site2888]”, 7.67 ± 0.4; under “TTTGCTTCGATATATTCACACATTTTTTTTCTTATT [CACACA_site4499]”, 7.94 ± 0.57.
As to “AAATGTAATAAATATACACACACAAATATATATATA [CACACA_site8754]”, the “gcPBM binding intensity (ln)” value came out at 8.98 ± 0.12.
With “TTTTTTTTTTTTGTCACACATATTTGTATTAATCAT [CACACA_site5235]”, the “gcPBM binding intensity (ln)” value stood at 8.29 ± 0.67.
For “CAACATTTGAAACACACACACATACAAACAAACAAA [CACACA_site3306]”, the “gcPBM binding intensity (ln)” value is 8.07 ± 0.27.
On to “TGAAATGGAAACAACTGTACAAAATAAATATGATAT [XGTACX_site1311]”, for which the “gcPBM binding intensity (ln)” value came out at 8.04 ± 0.71.
Under “AATATTAACAATCGCACACATATTATTTTTCCAAAA [CACACA_site4982]” stands 8.21 ± 0.39; under “ATATAAATATAGCATACACACAAAAAAATAAAATAA [CACACA_site2333]”, 7.75 ± 0.69.
Under “TTTTTATTAAAATGTATTTTAGGAAAAAACAAAAAA [XGTACX_negctrl_site437]” stands 7.59 ± 0.53; under “TTCCCTTTTGTAAAATGTACATATATATTTAAACAA [XGTACX_site3263]”, 8.01 ± 0.36.
“TAAGTTCCCTTTGAATGTACATATAATGAAAAGAAA [XGTACX_site826]”: the “gcPBM binding intensity (ln)” value turned out to be 7.96 ± 0.42.
Consider “AAAAAACTTTTAAGCACACACATAGATAATATAGAT [CACACA_site6835]”, for which the “gcPBM binding intensity (ln)” value stood at 8.76 ± 0.092.
For “ACATCTAATTTGTATACACACAATAATAAATGGTGA [CACACA_site824]”, the “gcPBM binding intensity (ln)” value amounted to 7.74 ± 0.46.
With “TATATATATTTATAATGTACATATTTTTTTTTATTT [XGTACX_site4761]”, the “gcPBM binding intensity (ln)” value turned out to be 8.09 ± 0.64.
On to “TTGTATATATGACTTTTTTATATTTCAATTTTGTGC [CACACA_negctrl_site296]”, for which the “gcPBM binding intensity (ln)” value is 7.55 ± 0.51.
As for “GAGATAAAATAAAACACACACATATATTTATATAAC [CACACA_site7098]”, the “gcPBM binding intensity (ln)” value is 7.76 ± 0.5.
Take “TATTAATTTTTAAACATAATTTTTCGTATAATATAT [CACACA_negctrl_site762]”: the “gcPBM binding intensity (ln)” value is 7.46 ± 0.38.
Under “TTTACTTTCTTATTTTCACACATTTAAAAAAAAATT [CACACA_site5949]” stands 8.12 ± 0.33; under “TATGGAAGAAAATATACACACAAAAAAAAAAAATGT [CACACA_site1486]”, 7.86 ± 0.66; under ATACTTTTATTTTTGGTGCATATATCATGTAGACGT, 10.56 ± 0.028.
Consider “AATTTATTATTTGTATGTACTCATATGATTCACTTA [XGTACX_site2797]”, for which the “gcPBM binding intensity (ln)” value is 7.84 ± 0.62.
Consider “AAATGAAATAAATGTAGTACACATATACAATATATA [XGTACX_site6951]”, for which the “gcPBM binding intensity (ln)” value was 7.79 ± 0.2.
With “TATTTTTATACAATTTAACACGGGTTATAAAATGTA [CACACA_negctrl_site566]”, the “gcPBM binding intensity (ln)” value amounted to 7.6 ± 0.51.
On to “TGTATATCATATATTTGTACTCAATTAATATAAACA [XGTACX_site3970]”, for which the “gcPBM binding intensity (ln)” value worked out at 7.62 ± 0.3.
Under “AAAATCAAGTAGTATAAAGTAAGTATCATAAAAATA [CACACA_negctrl_site1554]” stands 7.63 ± 0.59.
Take “GTACACTAATTATGTGCACACAAATTAAAGGTCTAC [CACACA_site146]”: the “gcPBM binding intensity (ln)” value was found to be 10.27 ± 0.049.
The value for ATAATAAAATGGAGAGTGCATACATGTTTATTTTAT was 9.4 ± 0.42.
Regarding “AGATATATTATTAGGTGTACTATAAAATAAATTCAC [XGTACX_site221]”, the “gcPBM binding intensity (ln)” value stood at 8.29 ± 0.21.
Consider “CGAACAAACAAATAAACACACAAAAAAAGATATATA [CACACA_site6944]”, for which the “gcPBM binding intensity (ln)” value amounted to 7.5 ± 0.64.
Under “AAAAAAAATTAGGAAACATGCATGTCCCGATAAATA [TGCATGCA_site149]” stands 7.79 ± 0.67.
Take “AAATGTGTTTATTTAACACACAAAAGAAAAAATATA [CACACA_site6993]”: the “gcPBM binding intensity (ln)” value was found to be 7.69 ± 0.59.
“AATGTAAAATATATGTGTACATATGTTTATATATAT [XGTACX_site2216]”: the “gcPBM binding intensity (ln)” value was found to be 8.36 ± 0.61.
For “GTGTGTTGTATATACTGTACATACTTTATATATAGT [XGTACX_site1876]”, the “gcPBM binding intensity (ln)” value worked out at 8.48 ± 0.13.
On to “TATAACAAGTAATGTTGTACATTGTATTATGTAATA [XGTACX_site6372]”, for which the “gcPBM binding intensity (ln)” value came out at 7.71 ± 0.31.
As to “TTACTCATGAAAGATACACACATTCATTATATATAT [CACACA_site3252]”, the “gcPBM binding intensity (ln)” value was determined as 8.27 ± 0.6.
Turning to “TATATAAACCCGTACACACACATATATGTATATATA [CACACA_site3507]”, the “gcPBM binding intensity (ln)” value was found to be 8.32 ± 0.18.
In the case of “AAATTTACAATACATTGTACATATTAATAATATTCC [XGTACX_site3646]”, the “gcPBM binding intensity (ln)” value came out at 7.67 ± 0.5.
On to “AGACATAAGATAATTACACACAATACATCCCTATAT [CACACA_site2227]”, for which the “gcPBM binding intensity (ln)” value stood at 7.76 ± 0.57.
Turning to “TACTTCTACAAGAGAAGTACAATATTTTTTATATTA [XGTACX_site8351]”, the “gcPBM binding intensity (ln)” value worked out at 7.42 ± 0.32.
Take “AATAAAAATTTACTTTGTACACATATTAAATTCAAT [XGTACX_site1957]”: the “gcPBM binding intensity (ln)” value stood at 7.83 ± 0.15.
With “TTAACGTAAAATATAGTGCATAGTATCATATTGATA [GTGCAC_site9527]”, the “gcPBM binding intensity (ln)” value came to 9.5 ± 0.099.
Consider “CAATCAAAGAAACACACACACACCTAAACATAAAAG [CACACA_site2756]”, for which the “gcPBM binding intensity (ln)” value worked out at 8.07 ± 0.35.
